Assay results published in the RNAGym collection of RNA variant scans (doi:10.7554/elife.90254).
Read counts are not given, so values of variants with three or more changes are uncertain.

B1: LINE1-mini (parent)
chain: GGCAGAGCUCAACACAGCGUGGCAAAGUGGCUGUGGCUAGACUGCC

Variants of: B1
Assay: self-cleavage, relative activity (ratio to wild type); higher = more cleavage; in vitro, sequencing; the parent is a self-cleaving ribozyme

Variant	self-cleavage
CGCAGAGCUAAACACAGCGUGGCAAAGUGGCUAUGGCUCGACUGCC [G1C C10A G33A A39C]	0.01
CGCAGAGCUCAACCCAGCGUGGCAAGGAGGCUGAGGGUAGACUGCC [G1C A14C A26G U28A U34A C37G]	0
CGCAGAGCUCAACACCGCGUGGCAAAGUGGCUGUAGCUAGACUGCC [G1C A16C G35A]	0.03
CGCAGAGGUCAACACAGCGUGGCAAAGUGGCUGUGGCUAGACUACC [G1C C8G G44A]	0.03
CGCAGAGCUCAACACAGCGUGGCAUAGUGUCUGUGGCUAUACUGCC [G1C A25U G30U G40U]	0.03
CGCAGGGCUCAACACAGCGUGGCAAAGUGGCUGUUGCUAGACUGCA [G1C A6G G35U C46A]	0
CGCAGAGCUCAUUACAGAGUGGCAAAGUGGCUGUGCCUAGACUGCC [G1C A12U C13U C18A G36C]	0.01
CGCAGAGCUUAACACAGCGUGGCAAAGUUGCUGUGGCUAGACUGCC [G1C C10U G29U]	0.04
CGCAGAGCUCAAGGCAGAGUGGCAAAGUGUCUGUGGCUAGACUGGC [G1C C13G A14G C18A G30U C45G]	0
AGCAGAGCUCAACACAGCGUGGCAAAGUGGCCGUGGCUAGUCUUCC [G1A U32C A41U G44U]	0.01
CGCAGAGCUUAACACAGCGUGGCCAAGUGGCUGUGGCUAGACUGCC [G1C C10U A24C]	0.05
CGCAGAGCUCAACACGGGGUGGCAAUGUUGCUGUGGCUAGACUGCU [G1C A16G C18G A26U G29U C46U]	0.03
CGCAGAGAUAAACACAGCGUGGCAAAGUGGCUGUGGCUAGACUGCC [G1C C8A C10A]	0
CGCAGGGUUGAACACAGCGUGGCAAAGUGGAUGUGGCUAGACUGCC [G1C A6G C8U C10G C31A]	0.01
CGCAGAGCUGAACACGGCAUGGCAAGGUGGCUGUGGCUAGACUGCC [G1C C10G A16G G19A A26G]	0.02
CGCAGAGCUGAACACAGCGUGGCAAAGUUGCUGUGGCUAGAAUGCC [G1C C10G G29U C42A]	0.01
CGCGGAGCUCAACACAGCGGGGCAAAGUGACUGUGGCUAGAUUGCC [G1C A4G U20G G30A C42U]	0.06
CGCCGAGAUCUACACAGCGUGGCAAAGUCGCUGUGGCUAGACUGCC [G1C A4C C8A A11U G29C]	0.03
CGCAGAGCUCAUCACAGCGGGGCAAAGUGGCUGUGGCUAGACUACC [G1C A12U U20G G44A]	0.01

Variant	self-cleavage
CGCAGGGCUAAACACAGCGUGGCAAAGUGGCUGUGGCGAGCCUGCC [G1C A6G C10A U38G A41C]	0.01
CGCAGAGCUCACCACAGCGUGGCAAAGUGGCUGAGGCUAGACUGCC [G1C A12C U34A]	0.02
CGCAGAGCUCAACCCAGCGUUGCAAAGUGGCUGUGGCUAGAGUGCC [G1C A14C G21U C42G]	0
CGCAGAGUUCAACACCGCUUGUCAAAGUGGCUGUGGCUAGACUGCC [G1C C8U A16C G19U G22U]	0.16
AGCAGAGCUCAACACAGCGUGGCAAAGUGGCUGAAGCAAGACUACC [G1A U34A G35A U38A G44A]	0.03
CGCAGAGCUCAGCACAGCGUGCCAAAGUGGCUGUGGCUAUACUGCC [G1C A12G G22C G40U]	0.01
CGCAGAGCUCAAAACAGCGUGGCAAAGCGGCGGUGGCUAGACUGCC [G1C C13A U28C U32G]	0.07
CGCCGAGCUCAACACAGUUUGGCAAAGUUGCUGUAGGUAGACUGCC [G1C A4C C18U G19U G29U G35A C37G]	0.02
CGCAGAGCUCAACACAGCGUGGCAAAGUGGCUGUGGCUAGUCUGUC [G1C A41U C45U]	0.03
CGCUGAGCUAAACACAGCGUGGCAAAGUGGCUGUGGCUAGACUGCG [G1C A4U C10A C46G]	0.02
CGCAGAGCUCAACUCAGCGUGGCAAAGUCGCUGUGGCUAGACUGCC [G1C A14U G29C]	0.06
AGCAGAGCUCAACACAGCGUGGCAAAGAGGCUGCGGCUGGACUGCC [G1A U28A U34C A39G]	0.02
CGCAGAGCUCAACACAGCGUGGCAACGUGGCUUUGGCUAAACUGCC [G1C A26C G33U G40A]	0.05
CGCCGAGCCCAACACAGCGUGGCAAAGUGCCUUUGGCUAGACUGCC [G1C A4C U9C G30C G33U]	0.01
CGCAGUGCUCAACACAGCGUGGCAAAGUGGCUGUGGCUAGACUGAA [G1C A6U C45A C46A]	0.06
AGCAGAGCUCAACACAGCGUGGCAAAGUGGCUGUGGCGCGACUCCC [G1A U38G A39C G44C]	0.19
CGCAGAGCUCAACGAAGUGUGGCAAAGUGGGUGUGGCUAGACCGCC [G1C A14G C15A C18U C31G U43C]	0.02
CGCAGUACUCAACAGACCGUUGCAGAGUGACUGUGGCUAGACUGCC [G1C A6U G7A C15G G17C G21U A25G G30A]	0.01
CGCAGAGCUCCACACAGCGUGGCAAAGUGGCUGUGACUAGACUGCC [G1C A11C G36A]	0

Variant	self-cleavage
CGCAGGGCUCAACACAGCGUGGCAAAGUGGCUUUGGCUAGACUGCC [G1C A6G G33U]	0.03
CGAAGAGCUCAACAUAGCGUGGCAAAGUGGCUGUGGCUAGACUUCC [G1C C3A C15U G44U]	0
CGUAGAGCUCAACACAGCGUGGCAAAUUGGCUGUGGCUAGACUGCC [G1C C3U G27U]	0.16
CGCAGAGCUCAACUCAGCCCGGCAAAGUGGCUGUGGCCAGACUGCU [G1C A14U G19C U20C U38C C46U]	0.08
CGCAGUGCUCUACACAGCGUGGCAAAGUGGAUGUGGCUUGACUGCC [G1C A6U A11U C31A A39U]	0.01
CGCAGAGCUCAUCACAGCGUGGCAAACUGGCUGUGGCUAGACUGCC [G1C A12U G27C]	0.03
CGCAGAGCUCAACACAGCGUGGCAAUGUGGCUGUGGCAAGACUGCC [G1C A26U U38A]	0.03
CGCAGGGCUAAACACAGCGUGACAAAGUGGCUGUGGCUAGACUGCC [G1C A6G C10A G22A]	0.04
CGCAGAGCUGACAACAGCGUAGCAAAGUGGCUGUGGCUAGACUGCC [G1C C10G A12C C13A G21A]	0.01
CGCAGGGCUCAACACAGCGUGGCAUAGUGGCUGUGAUAAGACUGCC [G1C A6G A25U G36A C37U U38A]	0.12
CGCAGAGUUCAACACAGCGUGGCAAAGUGGCUGUGGCUACACUGCC [G1C C8U G40C]	0.01
CGAAGAUCUCAAAUGAGCGUGGCAAACUGGCUGUGGCUAGACUUGC [G1C C3A G7U C13A A14U C15G G27C G44U C45G]	0.16
AGCAGAGCUCAACACAGCGUGGCAAAGUGGCCGUGGCUAGAACGCC [G1A U32C C42A U43C]	0.07
CGCAGAGCUUAACACUGCGUGGCAAAGUGGCUGUGGCUAAACUGCC [G1C C10U A16U G40A]	0.02
CGCAGGGCACAACACAGCGUGGCAAAUUGGCUGCAGCUAGACUACC [G1C A6G U9A G27U U34C G35A G44A]	0.12
CGCAGAGCUUAAAACAGCGUGGCAAAGUGGCUGUGGCUAGACUGCC [G1C C10U C13A]	0.01
CGCAGAGCUCGACACAGCGUGGCAAAGUGGGUGUGGCUAGACUGCC [G1C A11G C31G]	0
CGCAGAGAUCAACACAGCGCGGCAAAGUGGCUGUGGCUGGACUGCC [G1C C8A U20C A39G]	0
